The RNAGym collection of RNA variant scans (doi:10.1093/nar/gkz1192)
Read counts are not given, so values of variants with three or more changes are uncertain.

B1: CPEB3 Ribozyme (parent)
chain: UAACAGGGGGCCACAGCAGAAGCGUUCACGUCGCAGCCCCUGUCAGAUUCUGGUGAAUCUGCGAAUUCUGCUGUAUAUCUC

Variants of: B1
Test: self-cleavage, relative activity (ratio to wild type); higher = more cleavage; in vitro, sequencing
Procedure, shortened: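 Relative activity compares each variant's cleaved/total read fraction with that of the unmutated ribozyme. To get these fractions, barcoded CPEB3 ribozyme libraries from rounds of error-prone PCR were transcribed with T7 RNA polymerase for 5 hours at 37°C and then given 15 min of DNase I treatment before EDTA was added. The RNAs were reverse transcribed with template switching and sequenced on Illumina, and DNA sequencing linked barcodes to variants. A minimum of 5 reads applied, and three batches were averaged.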

Variant | self-cleavage
UAACAGGGGGCCACGGCAGAAACGUCCACAUCGCGGCCCCUGUCAGAUUCUGGUGAAUCUGCGAAUUCUGCCGUAUAUCUC [A15G G22A U26C G30A A35G U72C] | 0.05
UAACAGGGGGCCACGGCAGAAGCAUUCACGUCGCAGCCCCUGUCAGGUUCUGGUGAAUCUGCGAAUUCUGCUGUAUAUCUC [A15G G24A A47G] | 0.22
UAACAGGGGGCCACGGCAGAAGCAUUCACGUCGCAGCCCCUGUCAGAUUCUGGUGAAUCUGCGAAUUCUUCUGUAUAUCUC [A15G G24A G70U] | 0.25
UAACAGGGGGCCACGGCAGAAGCAUUCACGUCGCAGCCCCUGUCAGAUUCCGGUGAAUCUGCGAAUUCUGCUGUAUAUCUC [A15G G24A U51C] | 0.19
UAACAGGGGGCCACGGCAGAAGCGUUCACAUCGCGGCCCCUGCCAGAUUCCGGUGAGUCUGCGAAUUCUGCUGUAUAUCUC [A15G G30A A35G U43C U51C A57G] | 0.13
UAACAGGGGGCCACGGCAGAAGCGUUCACAUCGCAGCCCCUGUCAGAUUCUGGUGAAUCUGCGGACUCUGCUGUAUAUCUC [A15G G30A A64G U66C] | 0.18
UAACAGGGGGCCACGGCAGAAGCGUUCACAUCGCAGCCCCAGUCGGAUUCUGGUGAAUCUGCGAAUUCUGCUGUAUAUCUC [A15G G30A U41A A45G] | 0.07
UAACAGGGGGCCACGGCAGAAGCGUUCACAUCGCAGCCCCAGUCAGAUUCUGGUGGAUCUGCGAAUUCUGCUGUAUAUCUC [A15G G30A U41A A56G] | 0.26
UAACAGGGGGCCACGGCAGAAGCGUUCACAUCGCAGCCCCCGUCAGAGUCUGGUGAAUCUGCGGAUUCUGCUGUAUAUCUC [A15G G30A U41C U48G A64G] | 0.06
UAACAGGGGGCCACGGCAGAAGCGUUCACGUCACAGCCCCUGUCAGAUUCUGGCGAAUCUGCGAAUUCUGCGGUAUAUCUC [A15G G33A U54C U72G] | 0.13
UAACAGGGGGCCACGGCAGAAGCGUUCACGUCUCGGCCCCUGUCGGAUUCUGGUGCAUCUGCGAAUUCAGCUGUAUAUCUC [A15G G33U A35G A45G A56C U69A] | 0.2
UAACAGGGGGCCACGGCAGAAGCGUUCACGUCGCAGCCCCUUCCAGGUUCUGGUGAACCUGCGAAUUCUGCUGUAUAUCUC [A15G G42U U43C A47G U58C] | 0.1
UAACAGGGGGCCACGGCAGAAGCGUUCACGUCGCAGCCCCUGUCAUAUUAUGGUGAAUCUGCGAAUUCUGCUGUCUAUCUC [A15G G46U C50A A75C] | 0.32
UAACAGGGGGCCACGGCAGAAGCGUUCACGUCGCAGCCCCUGUCAGAUUCUGCUGGAUCUGCGAAUUCUGCUGUAUAUCCC [A15G G53C A56G U80C] | 0.81
UAACAGGGGGCCACGGCAGAAGCGUUCACGUCGCAGCCCCUGUCAGAUUCUGGUCAAUCUGCGAAUUCUGCUGUAUGUCUC [A15G G55C A77G] | 1.15
UAACAGGGGGCCACGGCAGAAGCGUUCACGUCGCAGCCCCUGUCAGAUUCUGGUGAAUCUGCUAAUUGUGCUGUAUAUCUC [A15G G63U C68G] | 0.22
UAACAGGGGGCCACGGCAGAAGCGAUCACGUCGCGGCCCCUGUCAGAUUCUGGUGAAUCUGCGAAUUCUGCUGUAUAUCUC [A15G U25A A35G] | 0.33

Variant | self-cleavage
UAACAGGGGGCCACGGCAGAAGCGAACACGUCGCAGCGCCUGUCAGAUUCUGGUGAGUCUGCGAAUACUGCUGUAUAACUC [A15G U25A U26A C38G A57G U67A U78A] | 0.07
UAACAGGGGGCCACGGCAGAAGCGAUCACGUCGCAGCCCCUGACAGAUUCUGGUGAAUCUGCGAAUUCUGCUGUAUAUCUC [A15G U25A U43A] | 0.13
UAACAGGGGGCCACGGCAGAAGCGAUCACGUCGCAGCCCCUGUCAGAUUCCGGUGAAUCUGCGAAUUCUGCAGUAUAUCUC [A15G U25A U51C U72A] | 0.21
UAACAGGGGGCCACGGCAGAAGCGCUCACGUCGCGGCCCCUGUCAGAUUCUGGUGAAUCUGCGAAUUCUGCUGUAUAUCUC [A15G U25C A35G] | 0.31
UAACAGGGGGCCACGGCAGAAGCGCUCACGUCGCGGCCCCUGUCAGAUUCUGGUGAAUCUGCGAAUACUGCUGUAUAUCAC [A15G U25C A35G U67A U80A] | 0.04
UAACAGGGGGCCACGGCAGAAGCGCUCACGUCGCAGCCCCUGUCCGAUUCUGGUGAAUCUGCGAAUUCUGCUGUAUAACUC [A15G U25C A45C U78A] | 0.15
UAACAGGGGGCCACGGCAGAAGCGCUCACGUCGCAGCCCCUGUCGGAUUCUGGUGAGUCUGCGAAUUCCGCUGAAUAUCUC [A15G U25C A45G A57G U69C U74A] | 0.03
UAACAGGGGGCCACGGCAGAAGCGCUCACGUCGCAGCCCCUGUCUGAUUCUGGUGAAUCUGCGAACUCUGCUGUAUAUCUC [A15G U25C A45U U66C] | 0.17
UAACAGGGGGCCACGGCAGAAGCGCUAACGUCGCAGCCCCUGUCAGAUUCUGGUGAACCUGCGAAUUCUGCUGUAUAUCUC [A15G U25C C27A U58C] | 0.04
UAACAGGGGGCCACGGCAGAAGCGCUCACGUCACAGCCCCUGUCGGAUUCCGGUGAAUCUGCGAAUUCUGAAGUAUAUCUC [A15G U25C G33A A45G U51C C71A U72A] | 0.09
UAACAGGGGGCCACGGCAGAAGCGCCCACGUCGAAGCCCCUGCCAGAUUCUGGUGAAUCUGCGAACUCUGCUGUAUAUCUC [A15G U25C U26C C34A U43C U66C] | 0.13
UAACAGGGGGCCACGGCAGAAGCGCUCACGUCGCAGCCCCCGUCAGAUUCUGGUGAGUCUGCGAAUUCUGCUGGAUAUCUC [A15G U25C U41C A57G U74G] | 0.13
UAACAGGGGGCCACGGCAGAAGCGCUCACGUCGCAGCCCCCGUCAGAUUCUGGUGAAUCUGCGAAUUGUGCCGUAUGUCUC [A15G U25C U41C C68G U72C A77G] | 0.06
UAACAGGGGGCCACGGCAGAAGCGCUCACGUCGCAGCCCCUGUCAGACUCUGGUGAGUUUGCGAAUUCUGCCGUAUAUCUC [A15G U25C U48C A57G C59U U72C] | 0.47
UAACAGGGGGCCACGGCAGAAGCGCUCACGUCGCAGCCCCUGUCAGAUUCUGGCGAAUCUGCGAAUUCCGCUGUAUAUCUC [A15G U25C U54C U69C] | 0.38
UAACAGGGGGCCACGGCAGAAGCGCUCACGUCGCAGCCCCUGUCAGAUUCUGGUGAAUCGGCGAAUUCUGCUGUAUAUCUC [A15G U25C U60G] | 0.07
UAACAGGGGGCCACGGCAGAAGCGCUCACGUCGCAGCCCCUGUCAGAUUCUGGUGAAUCUGCGAAUUCCGCUGUAUAUCUA [A15G U25C U69C C81A] | 0.23
